Results as given in the supplement of paper PMC4604168 (melanoma cell lines).
The other results are listed elsewhere or left out. Most values come without repeats; read them as rough.

Legend:
Experiment in all cases: cell count relative to DMSO control; melanoma cells; higher = more viable cells
Conditions in all cases: library dose: standard library concentration; 72 h
G361 = tested on: G361
IPC-298 = tested on: IPC-298
IST-MEL1 = tested on: IST-MEL1
LB2518-MEL = tested on: LB2518-MEL
LOXIMVI = tested on: LOXIMVI
MEL-HO = tested on: MEL-HO
MZ2-MEL = tested on: MZ2-MEL
MeWo = tested on: MeWo
RPMI7951 = tested on: RPMI7951
RVH-421 = tested on: RVH-421
SkMel28 = tested on: SkMel28
SkMel2 = tested on: SkMel2
SkMel30 = tested on: SkMel30
SkMel5 = tested on: SkMel5
UACC257 = tested on: UACC257
UACC62 = tested on: UACC62
WM115 = tested on: WM115
WM1716 = tested on: WM1716
WM3526 = tested on: WM3526
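Further: cells treated in 1,536-well plates, then fixed and DAPI-stained, with nuclei counted from automated high-throughput microscope images.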

Row | Structure (SMILES) | cell count (G361) [%] | cell count (IPC-298) [%] | cell count (IST-MEL1) [%] | cell count (LB2518-MEL) [%] | cell count (LOXIMVI) [%] | cell count (MEL-HO) [%] | cell count (MZ2-MEL) [%] | cell count (MeWo) [%] | cell count (RPMI7951) [%] | cell count (RVH-421) [%] | cell count (SkMel28) [%] | cell count (SkMel2) [%] | cell count (SkMel30) [%] | cell count (SkMel5) [%] | cell count (UACC257) [%] | cell count (UACC62) [%] | cell count (WM115) [%] | cell count (WM1716) [%] | cell count (WM3526) [%]
1 | C[C@]1(O)C[C@@H](c2nc(-c3ccc4ccc(-c5ccccc5)nc4c3)c3c(N)nccn32)C1 + COc1cc2ncnc(Nc3ccc(Oc4ccccc4)cc3)c2cc1OC [SrcI1] (first compound 2 µM, partner dose 10 µM) | 32.4 | 67 | 84.8 | 95 | 63.2 | 83.7 | 55.9 | 74.5 | 40.3 | 109 | 65.7 | 80.5 | 88.9 | 57.4 | 73.7 | 55.6 | 78.4 | 78.2 | 54.6
2 | C[C@]1(O)C[C@@H](c2nc(-c3ccc4ccc(-c5ccccc5)nc4c3)c3c(N)nccn32)C1 + COc1cc(N2CCC(N3CCN(C)CC3)CC2)ccc1Nc1ncc(Cl)c(Nc2ccccc2S(=O)(=O)C(C)C)n1 [NVP-TAE684] (first compound 2 µM, partner dose 0.4 µM) | 90.3 | 112 | 81.8 | 105 | 108 | 84.5 | 107 | 75.9 | 108 | 104 | 84.5 | 76.6 | 107 | 62.7 | 102 | 81.6 | 85.8 | 84 | 71.7
3 | C[C@]1(O)C[C@@H](c2nc(-c3ccc4ccc(-c5ccccc5)nc4c3)c3c(N)nccn32)C1 + CCN(CC)CCCCNc1ncc2cc(-c3cc(OC)cc(OC)c3)c(NC(=O)NC(C)(C)C)nc2n1 [PD173074] (first compound 2 µM, partner dose 0.5 µM) | 86.8 | 99.5 | 105 | 87.8 | 146 | 98.5 | 97.5 | 79.1 | 91.6 | 97.8 | 79 | 69.7 | 95.6 | 83.9 | 97.4 | 91 | 114 | 95 | 88.4
4 | COc1cc([C@@H]2c3cc4c(cc3[C@@H](O[C@@H]3O[C@@H]5CO[C@@H](C)O[C@H]5[C@H](O)[C@H]3O)[C@H]3COC(=O)[C@H]23)OCO4)cc(OC)c1O [etoposide] + Cc1cc([N+](=O)[O-])ccc1NS(=O)(=O)c1cc(Cl)ccc1Cl [FH535] (first compound 0.1 µM, partner dose 5 µM) | 70.4 | 54.3 | 63.9 | 85 | 77.6 | 65.8 | 76.5 | 78.4 | 119 | 71.7 | 77.3 | 81.9 | 95.4 | 86.3 | 83.1 | 82.1 | 86.7 | 57.9 | 82.8
5 | COc1cc([C@@H]2c3cc4c(cc3[C@@H](O[C@@H]3O[C@@H]5CO[C@@H](C)O[C@H]5[C@H](O)[C@H]3O)[C@H]3COC(=O)[C@H]23)OCO4)cc(OC)c1O [etoposide] + COc1cc2ncnc(Nc3ccc(Oc4ccccc4)cc3)c2cc1OC [SrcI1] (first compound 0.1 µM, partner dose 10 µM) | 58.4 | 55.3 | 78.2 | 90 | 71.5 | 82.3 | 74.9 | 70.9 | 28.1 | 107 | 88.9 | 54.8 | 88.5 | 66.7 | 79.5 | 57.3 | 71.1 | 51.9 | 52.9
6 | COc1cc([C@@H]2c3cc4c(cc3[C@@H](O[C@@H]3O[C@@H]5CO[C@@H](C)O[C@H]5[C@H](O)[C@H]3O)[C@H]3COC(=O)[C@H]23)OCO4)cc(OC)c1O [etoposide] + N#Cc1c(O)c2c(-c3ccc(-c4ccccc4O)cc3)csc2[nH]c1=O [A769662] (first compound 0.1 µM, partner dose 10 µM) | 81.2 | 77.7 | 87.9 | 94.9 | 85.8 | 90 | 74.1 | 88 | 100 | 90.9 | 93.4 | 68.2 | 97.8 | 92.2 | 102 | 61.4 | 84.7 | 63.6 | 103
7 | CCN(CC)CCNC(=O)c1c(C)[nH]c(/C=C2\C(=O)Nc3ccc(F)cc32)c1C [sunitinib] + O=S(=O)(c1ccccc1)N(CC(F)(F)F)c1ccc(C(O)(C(F)(F)F)C(F)(F)F)cc1 [T0901317] (first compound 2 µM, partner dose 7 µM) | 66.9 | 62.1 | 94.1 | 71.3 | 100 | 88.2 | 97.8 | 55 | 80.6 | 124 | 64.6 | 61.8 | 77.1 | 44.5 | 88.2 | 44.4 | 73.7 | 67 | 57.7
8 | COc1cc([C@@H]2c3cc4c(cc3[C@@H](O[C@@H]3O[C@@H]5CO[C@@H](C)O[C@H]5[C@H](O)[C@H]3O)[C@H]3COC(=O)[C@H]23)OCO4)cc(OC)c1O [etoposide] + Oc1cc(-c2nc(-c3ccccc3)[nH]c2-c2ccncc2)ccc1Cl [L779450] (first compound 0.1 µM, partner dose 1 µM) | 65.8 | 71.7 | 88 | 71.9 | 95.1 | 90.6 | 76.8 | 75.3 | 73.9 | 73.9 | 48.1 | 27.4 | 92.5 | 57.2 | 87.4 | 50.5 | 58.4 | 61.7 | 60.9
9 | Cn1cnc2c(F)c(Nc3ccc(Br)cc3Cl)c(C(=O)NOCCO)cc21 [selumetinib] + CCN(CC)CCCCNc1ncc2cc(-c3cc(OC)cc(OC)c3)c(NC(=O)NC(C)(C)C)nc2n1 [PD173074] (first compound 0.075 µM, partner dose 0.5 µM) | 68.8 | 59.3 | 87 | 46.9 | 85.9 | 71.2 | 82.3 | 56.4 | 93 | 86.5 | 66.1 | 30.1 | 78.8 | 62.3 | 97 | 59.1 | 73.3 | 76 | 49.5
10 | C[C@]1(O)C[C@@H](c2nc(-c3ccc4ccc(-c5ccccc5)nc4c3)c3c(N)nccn32)C1 + CCCCCCCCCCCC1=C(O)C(=O)C=C(O)C1=O [Embelin] (first compound 2 µM, partner dose 6 µM) | 61.1 | 66.3 | 69.5 | 102 | 58.6 | 74.4 | 81.1 | 84.5 | 82.3 | 70 | 93.2 | 80.1 | 96.4 | 70.8 | 77.8 | 51.2 | 94.3 | 79.7 | 73.9
11 | COc1cc([C@@H]2c3cc4c(cc3[C@@H](O[C@@H]3O[C@@H]5CO[C@@H](C)O[C@H]5[C@H](O)[C@H]3O)[C@H]3COC(=O)[C@H]23)OCO4)cc(OC)c1O [etoposide] + COc1ccc(COc2ccc(Cc3cnc(N)nc3N)cc2OC)cc1 [GW2580] (first compound 0.1 µM, partner dose 5 µM) | 81.6 | 72.7 | 94.8 | 71.5 | 95.5 | 89.8 | 77.4 | 93.3 | 107 | 87.5 | 72.3 | 59.3 | 94.1 | 75.9 | 81.8 | 85.3 | 84.7 | 65 | 85.4
12 | Cn1cnc2c(F)c(Nc3ccc(Br)cc3Cl)c(C(=O)NOCCO)cc21 [selumetinib] + COc1ccc(-c2ccc3c(N4CCOCC4)nc(N4C[C@@H](C)O[C@@H](C)C4)nc3n2)cc1CO [KU0063794] (first compound 0.075 µM, partner dose 0.1 µM) | 46.3 | 58.3 | 70.6 | 46.9 | 120 | 80.1 | 84 | 65.4 | 126 | 62.8 | 32.6 | 66.1 | 47.1 | 42.3 | 75.2 | 41 | 51.8 | 74.9 | 44.3
13 | COc1cc([C@@H]2c3cc4c(cc3[C@@H](O[C@@H]3O[C@@H]5CO[C@@H](C)O[C@H]5[C@H](O)[C@H]3O)[C@H]3COC(=O)[C@H]23)OCO4)cc(OC)c1O [etoposide] + CC(C)CCN1c2nc(Nc3cc(F)c(O)c(F)c3)ncc2N(C)C(=O)C1C [BID1870] (first compound 0.1 µM, partner dose 1 µM) | 50.3 | 54 | 83.9 | 83 | 89.1 | 77.1 | 68.9 | 62.5 | 77.9 | 94.9 | 36.7 | 47.6 | 74.1 | 59.6 | 75.7 | 63.6 | 74.1 | 59 | 67.1
14 | Cn1cnc2c(F)c(Nc3ccc(Br)cc3Cl)c(C(=O)NOCCO)cc21 [selumetinib] + COc1cc2ncnc(Nc3ccc(Oc4ccccc4)cc3)c2cc1OC [SrcI1] (first compound 0.075 µM, partner dose 10 µM) | 51.4 | 56.1 | 74.6 | 50.7 | 51 | 73.9 | 56.2 | 51.6 | 65.3 | 87.8 | 43.6 | 60.9 | 59.6 | 62.3 | 87.7 | 43.8 | 46.3 | 57.6 | 48.4
15 | C[C@]1(O)C[C@@H](c2nc(-c3ccc4ccc(-c5ccccc5)nc4c3)c3c(N)nccn32)C1 + c1cc(-c2cnn3cc(-c4ccc(OCCN5CCCCC5)cc4)cnc23)ccn1 [Dorsomorphin] (first compound 2 µM, partner dose 2 µM) | 52.7 | 80.4 | 77.7 | 60.9 | 89.1 | 81.9 | 59 | 69 | 50.9 | 76.5 | 72.8 | 54.9 | 100 | 57.8 | 75.5 | 97.6 | 89.4 | 78.8 | 62.6
16 | CCN(CC)CCNC(=O)c1c(C)[nH]c(/C=C2\C(=O)Nc3ccc(F)cc32)c1C [sunitinib] + Oc1nc(-c2ccc(C(F)(F)F)cc2)nc2c1CSCC2 [XAV939] (first compound 2 µM, partner dose 10 µM) | 79.2 | 72 | 90.4 | 61.9 | 108 | 76.4 | 91.4 | 59.4 | 77.8 | 139 | 50.3 | 75.7 | 72.5 | 58.7 | 88.2 | 56.5 | 62.5 | 89 | 56
17 | C[C@]1(O)C[C@@H](c2nc(-c3ccc4ccc(-c5ccccc5)nc4c3)c3c(N)nccn32)C1 + Oc1nc(-c2ccc(C(F)(F)F)cc2)nc2c1CSCC2 [XAV939] (first compound 2 µM, partner dose 10 µM) | 71.6 | 81.6 | 93.5 | 89.1 | 177 | 85.5 | 116 | 85.5 | 92.1 | 90.3 | 72.3 | 83.1 | 105 | 68.2 | 82.1 | 74.3 | 126 | 64.4 | 105
